How the values were obtained:
endothelin A receptor [1] = details: for effect on agonist dependent ETAR endocytosis (phenotype) / ETAR endocytosis/internalization compared to control: 10 μM compound; for effect on agonist dependent ETAR endocytosis (phenotype): 40 nM endothelin-1; for ETAR endocytosis/internalization compared to control: endothelin stimulated; for increase in number of ETAR positive endosomes per cell at the cell periphery: co-treated with erbstatin A or nocodazole
endothelin A receptor [2] = assay: Single cell visual screening: ETAR internalization in ETAR:GFP expressing cells; format: cell-based, human; details: 10 μM compound, 40 nM endothelin
Method: Single cell differential screening. […] (b) 10 μM Erbstatin A. (c) 10 μM H-89 (d) DMSO (e) 40 nM endothelin-1 alone. Confocal images are from a 1 μm Z section. […] Scale bar 5 μm.
The effect of the 3 kinase inhibitors affecting ETAR on receptor activation and housekeeping endocytosis were simultaneously imaged in ETAR: GFP expressing cells by internalization of red fluorescent dextran (FIG. 3). […] Thus, inhibition of protein kinase A and C second messenger activated kinases potently altered ETAR GPCR internalization but left housekeeping endocytosis unaffected.

Row | Compound | ETAR localisation after ET-1 stimulation, single cell imaging (endothelin A receptor [2]) | effect on agonist dependent ETAR endocytosis (phenotype) (endothelin A receptor [1]) | ETAR endocytosis/internalization compared to control (endothelin A receptor [1]) [fold] | increase in number of ETAR positive endosomes per cell at the cell periphery (endothelin A receptor [1]) [fold] | also measured
1 | Cn1c2ccccc2c2c3c(c4c5ccccc5n(CCC#N)c4c21)CNC3=O [Gö 6976] |  |  |  |  | ETAR internalization (endothelin A receptor [1]; 1 μM compound): inhibited
2 | Cn1cc(C2=C(c3cn(CCCSC(=N)N)c4ccccc34)C(=O)NC2=O)c2ccccc21 [Ro 31-8220] | arrested ETAR at the plasma membrane | ETAR arrest at the cell surface |  |  | phorbol ester stimulation of ETAR internalization, simultaneous treatment with PMA (endothelin A receptor [1]; 100 nM PMA plus 10 μM RO 31 8220): reduced to the negative control level
3 | O=S(=O)(NCCNC/C=C/c1ccc(Br)cc1)c1cccc2cnccc12 [H-89] | increased delivery of the receptor to the recycling endosome |  | 1.25 | 1.5 | dose-response curve to ET-1 in the ETAR assay (endothelin A receptor [1]; cells treated with H-89): increased the slope of the dose-response curve
4 | CCCCCCOC(=O)[C@]1(O)C[C@@H]2O[C@@]1(C)n1c3ccccc3c3c4c(c5c6ccccc6n2c5c31)C(=O)NC4 [KT5720] |  | accumulated in the recycling endosome | > 1.5 | 1.5 | 
5 | CCCCCCCCCCCCCCCC(=O)OC(CC(=O)O)C[N+](C)(C)C.[Cl-] (stereo not drawn) [Palmitoyl DL carnitine chloride] |  | ETAR arrest at the cell surface |  |  | 
